{"source": "the supplement of paper PMC10126150", "note": "Sequences with one replicate were seen in a single cluster, so their values are uncertain.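 Note: ATP exposure 15 min at 22 °C before imaging.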"}
{"test_system": "ATP", "experiment": "switch fluorescence ratio, 500 uM ATP over buffer (Cy3 cluster intensity, sum of 5 cycles each) (fold (ratio)); higher = stronger signal-on switching upon ATP binding; sequences stand for … in TCGTCGGCAGCGTCAGATGTGTATAAGAGACAGTTTTTTTTTTTTTTTTTTTTTTTTT…TC", "details": "aptamer strand: ATP DNA aptamer (quencher-CACCTGGGGGAGTATTGCGGAGGAAGG + anchor), 100 nM annealed; ATP concentration: 500 uM; one replicate", "in_short": "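Cy3-labelled switching-strand clusters on a modified Illumina MiSeq flow-cell were annealed to 100 nM quencher-labelled ATP aptamer and imaged first in selection buffer, then after 15 min with 500 uM ATP at 22 °C. NaOH stripping and re-annealing separated each of five buffer/ATP cycles, and clusters outside 100-1000 RFU were excluded. The fluorescence ratio sums target-cycle Cy3 intensity over buffer-cycle Cy3 intensity per cluster and averages it per switch-domain sequence.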"}
{"sequence": "GGAATATTCG", "switch fluorescence ratio": 1.02}
{"sequence": "GGAATCAATT", "switch fluorescence ratio": 1.05}
{"sequence": "GGAATCTAA", "switch fluorescence ratio": 1.02}
{"sequence": "GGAATGATGT", "switch fluorescence ratio": 0.988}
{"sequence": "GGAATGGCGG", "switch fluorescence ratio": 0.985}
{"sequence": "GGAATGGGAC", "switch fluorescence ratio": 0.99}
{"sequence": "GGAATGTT", "switch fluorescence ratio": 0.992}
{"sequence": "GGAATTAATC", "switch fluorescence ratio": 1.02}
{"sequence": "GGAATTCA", "switch fluorescence ratio": 0.997}
{"sequence": "GGAATTCTGA", "switch fluorescence ratio": 1.02}
{"sequence": "GGACAACAAT", "switch fluorescence ratio": 0.999}
{"sequence": "GGACAACCTT", "switch fluorescence ratio": 1.68}
{"sequence": "GGACAGGGAA", "switch fluorescence ratio": 0.985}
{"sequence": "GGACATACGG", "switch fluorescence ratio": 1.06}
{"sequence": "GGACATGTCT", "switch fluorescence ratio": 0.983}
{"sequence": "GGACCACG", "switch fluorescence ratio": 0.95}
{"sequence": "GGACCAGCCG", "switch fluorescence ratio": 1.08}
{"sequence": "GGACCCTATA", "switch fluorescence ratio": 1.1}
{"sequence": "GGACCGAGCC", "switch fluorescence ratio": 1.42}
{"sequence": "GGACCGGAGC", "switch fluorescence ratio": 1.85}
{"sequence": "GGACCGGGG", "switch fluorescence ratio": 0.949}
{"sequence": "GGACCGTCGT", "switch fluorescence ratio": 1.03}
{"sequence": "GGACGAGGGA", "switch fluorescence ratio": 0.965}
{"sequence": "GGACGCAAGA", "switch fluorescence ratio": 3.78}
{"sequence": "GGACGCGCTC", "switch fluorescence ratio": 1.25}
{"sequence": "GGACGGAGAA", "switch fluorescence ratio": 0.998}
{"sequence": "GGACGGGGAA", "switch fluorescence ratio": 1.01}
{"sequence": "GGACTAAACA", "switch fluorescence ratio": 1.04}
{"sequence": "GGACTAAATG", "switch fluorescence ratio": 1.01}
{"sequence": "GGACTAAGCC", "switch fluorescence ratio": 0.946}
{"sequence": "GGACTGGCCG", "switch fluorescence ratio": 1.01}
{"sequence": "GGACTGGG", "switch fluorescence ratio": 0.959}
{"sequence": "GGACTGGTTA", "switch fluorescence ratio": 1.04}
{"sequence": "GGACTTCTGA", "switch fluorescence ratio": 0.989}
{"sequence": "GGAGACCCGA", "switch fluorescence ratio": 1.03}
{"sequence": "GGAGACCGAG", "switch fluorescence ratio": 0.945}
{"sequence": "GGAGACGCAA", "switch fluorescence ratio": 3.53}
{"sequence": "GGAGAGTGTT", "switch fluorescence ratio": 0.979}
{"sequence": "GGAGATGTAG", "switch fluorescence ratio": 1.01}
{"sequence": "GGAGCAGCGG", "switch fluorescence ratio": 1.09}
{"sequence": "GGAGCAGGAT", "switch fluorescence ratio": 1.06}
{"sequence": "GGAGCCCTGG", "switch fluorescence ratio": 1}
{"sequence": "GGAGCGCAAT", "switch fluorescence ratio": 3.19}
{"sequence": "GGAGCGGGAG", "switch fluorescence ratio": 1.16}
{"sequence": "GGAGCGGTAT", "switch fluorescence ratio": 1.32}
{"sequence": "GGAGCTGCAT", "switch fluorescence ratio": 1.03}
{"sequence": "GGAGCTGCTG", "switch fluorescence ratio": 0.977}
{"sequence": "GGAGCTTATG", "switch fluorescence ratio": 1.11}
{"sequence": "GGAGCTTGAT", "switch fluorescence ratio": 1.03}
{"sequence": "GGAGGAGAA", "switch fluorescence ratio": 0.99}
{"sequence": "GGAGGAGAGT", "switch fluorescence ratio": 1.03}
{"sequence": "GGAGGATAGG", "switch fluorescence ratio": 1.05}
{"sequence": "GGAGGCGAAG", "switch fluorescence ratio": 1.01}
{"sequence": "GGAGGCGGCC", "switch fluorescence ratio": 1.01}
{"sequence": "GGAGGGACAA", "switch fluorescence ratio": 1.01}
{"sequence": "GGAGGGTGTT", "switch fluorescence ratio": 1.09}
{"sequence": "GGAGGTGTCC", "switch fluorescence ratio": 1.02}
{"sequence": "GGAGTAGATC", "switch fluorescence ratio": 1.06}
{"sequence": "GGAGTCAGGA", "switch fluorescence ratio": 1}
{"sequence": "GGAGTCATAA", "switch fluorescence ratio": 1.08}
{"sequence": "GGAGTCCCTA", "switch fluorescence ratio": 0.983}
{"sequence": "GGAGTGAATT", "switch fluorescence ratio": 0.985}
{"sequence": "GGAGTGGACA", "switch fluorescence ratio": 1.03}
{"sequence": "GGAGTTGGGC", "switch fluorescence ratio": 0.861}
{"sequence": "GGAGTTGTGC", "switch fluorescence ratio": 1.1}
{"sequence": "GGATACGAGT", "switch fluorescence ratio": 1.03}
{"sequence": "GGATAGATAG", "switch fluorescence ratio": 0.983}
{"sequence": "GGATAGCGGG", "switch fluorescence ratio": 1.03}
{"sequence": "GGATATGT", "switch fluorescence ratio": 0.958}
{"sequence": "GGATCAGTTA", "switch fluorescence ratio": 0.982}
{"sequence": "GGATCATTAG", "switch fluorescence ratio": 0.986}
{"sequence": "GGATCATTCC", "switch fluorescence ratio": 1.22}
{"sequence": "GGATCCAAAA", "switch fluorescence ratio": 0.989}
{"sequence": "GGATCCATAT", "switch fluorescence ratio": 1}
{"sequence": "GGATCCGTCG", "switch fluorescence ratio": 0.992}
{"sequence": "GGATCCTTGG", "switch fluorescence ratio": 1.04}
{"sequence": "GGATCGCGAT", "switch fluorescence ratio": 1.02}
{"sequence": "GGATCGGTGG", "switch fluorescence ratio": 1.06}
{"sequence": "GGATCTCTTT", "switch fluorescence ratio": 1.04}
{"sequence": "GGATCTGACG", "switch fluorescence ratio": 0.919}
{"sequence": "GGATGAATTA", "switch fluorescence ratio": 0.973}
{"sequence": "GGATGAGACT", "switch fluorescence ratio": 0.979}
{"sequence": "GGATGGAATT", "switch fluorescence ratio": 0.974}
{"sequence": "GGATGGTCCT", "switch fluorescence ratio": 0.965}
{"sequence": "GGATGTTCAG", "switch fluorescence ratio": 0.995}
{"sequence": "GGATTACTAT", "switch fluorescence ratio": 0.97}
{"sequence": "GGATTATTGC", "switch fluorescence ratio": 0.96}
{"sequence": "GGATTCCATG", "switch fluorescence ratio": 1.02}
{"sequence": "GGATTCGGGT", "switch fluorescence ratio": 0.954}
{"sequence": "GGATTCGGT", "switch fluorescence ratio": 0.972}
{"sequence": "GGATTCGTGC", "switch fluorescence ratio": 1.01}
{"sequence": "GGATTGCAGA", "switch fluorescence ratio": 0.977}
{"sequence": "GGATTTCTGT", "switch fluorescence ratio": 1}
{"sequence": "GGATTTGGGC", "switch fluorescence ratio": 1.04}
{"sequence": "GGCAAAGATT", "switch fluorescence ratio": 1.01}
{"sequence": "GGCAAATCGA", "switch fluorescence ratio": 1.02}
{"sequence": "GGCAAGGGGC", "switch fluorescence ratio": 1.02}
{"sequence": "GGCAATTGGG", "switch fluorescence ratio": 1.07}
{"sequence": "GGCACAGTCC", "switch fluorescence ratio": 1.02}
{"sequence": "GGCACGCCCG", "switch fluorescence ratio": 0.998}
